Test results as given in the supplement of paper PMC7826260.
Some of the results follow. Each Rep nickase domain was tested in vitro on the same pool of single strands for 1 h at 37 °C with 3 µM enzyme; only the middle of the 90-letter strands is printed. Uncut reads are compared with the no-enzyme pool on a log2 scale; uncut sequences lie near 0, cut ones below; no hit call is given. Reads are scaled to the total; where an enzyme cuts many sequences, the uncut ones exceed 0.

How the values were obtained:
Test in all cases: uncleaved DNA left, log2 of reads against the no-enzyme library (log2 ratio); higher = less cleavage (more negative = more Rep cleavage of the k-mer); sequences stand for … in CTCGTCCG…ACCGGAGA
[1] = tested on: T1, Rep nickase domain of Muscovy duck circovirus
T1 sequence (protein, residues 1-111, tag omitted): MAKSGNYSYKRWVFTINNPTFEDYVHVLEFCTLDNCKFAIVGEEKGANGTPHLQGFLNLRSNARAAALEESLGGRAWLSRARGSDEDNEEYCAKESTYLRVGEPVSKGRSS
Description: (§1)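 A pool of 90-nt single-stranded DNAs with seven random bases just before the constant AC of the nick site (name = the seven bases) was cut by 3 µM recombinant His6-SUMO-tagged Rep nickase domain (300 nM DNA, 50 mM HEPES pH 8.0, 50 mM NaCl, 1 mM MnCl2, 1 h, 37 °C, three replicates). Uncut DNA was amplified and sequenced.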

[2] = tested on: T2, Rep nickase domain of banana bunchy top virus
T2 sequence (protein, residues 1-94, tag omitted): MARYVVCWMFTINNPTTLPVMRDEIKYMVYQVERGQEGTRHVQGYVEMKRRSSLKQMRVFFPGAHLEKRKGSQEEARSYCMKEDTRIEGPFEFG
Description: as §1

[3] = tested on: T3, Rep nickase domain of cabbage leaf curl virus
T3 sequence (protein, residues 1-116, tag omitted): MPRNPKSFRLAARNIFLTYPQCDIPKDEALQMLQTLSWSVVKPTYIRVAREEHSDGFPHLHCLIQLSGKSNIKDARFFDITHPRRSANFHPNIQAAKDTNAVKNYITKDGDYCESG
Description: as §1

[4] = tested on: T4, Rep nickase domain of chickpea chlorotic dwarf virus
T4 sequence (protein, residues 1-124, tag omitted): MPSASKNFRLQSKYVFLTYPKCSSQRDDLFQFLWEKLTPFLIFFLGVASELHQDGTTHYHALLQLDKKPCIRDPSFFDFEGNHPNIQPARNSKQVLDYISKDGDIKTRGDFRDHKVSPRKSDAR
Description: as §1

[5] = tested on: T5, Rep nickase domain of faba bean necrotic yellows virus
T5 sequence (protein, residues 1-98, tag omitted): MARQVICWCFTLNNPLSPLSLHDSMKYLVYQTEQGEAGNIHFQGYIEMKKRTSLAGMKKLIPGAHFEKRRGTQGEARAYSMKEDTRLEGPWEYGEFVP
Description: as §1

[6] = tested on: T6, Rep nickase domain of maize striate mosaic virus
T6 sequence (protein, residues 1-117, tag omitted): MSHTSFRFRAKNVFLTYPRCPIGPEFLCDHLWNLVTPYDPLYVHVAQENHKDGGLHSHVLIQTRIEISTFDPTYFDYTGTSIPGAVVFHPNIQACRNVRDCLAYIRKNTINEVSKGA
Description: as §1

[7] = tested on: T7, Rep nickase domain of porcine circovirus 2
T7 sequence (protein, residues 2-116, tag omitted): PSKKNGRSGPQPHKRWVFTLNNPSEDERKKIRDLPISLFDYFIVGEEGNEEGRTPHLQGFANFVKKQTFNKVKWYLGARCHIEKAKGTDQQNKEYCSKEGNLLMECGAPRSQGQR
Description: as §1

[8] = tested on: T8, Rep nickase domain of tomato yellow leaf curl virus
T8 sequence (protein, residues 1-136, tag omitted): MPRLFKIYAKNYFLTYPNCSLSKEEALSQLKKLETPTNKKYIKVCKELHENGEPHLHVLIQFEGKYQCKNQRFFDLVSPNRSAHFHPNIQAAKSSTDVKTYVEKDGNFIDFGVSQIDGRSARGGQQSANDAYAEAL
Description: as §1

[9] = tested on: T9, Rep nickase domain of wheat dwarf virus
T9 sequence (protein, residues 1-137, tag omitted): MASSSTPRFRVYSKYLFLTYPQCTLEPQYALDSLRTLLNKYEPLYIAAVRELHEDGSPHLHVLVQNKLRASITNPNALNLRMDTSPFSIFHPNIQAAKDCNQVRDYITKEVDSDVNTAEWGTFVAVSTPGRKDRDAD
Description: as §1

Sequence | uncleaved DNA left (log2) [1] | uncleaved DNA left (log2) [2] | uncleaved DNA left (log2) [3] | uncleaved DNA left (log2) [4] | uncleaved DNA left (log2) [5] | uncleaved DNA left (log2) [6] | uncleaved DNA left (log2) [7] | uncleaved DNA left (log2) [8] | uncleaved DNA left (log2) [9]
GCACTTT | 0.0899 | 0.0229 | -0.0115 | -1.33 | -0.0668 | 0.0321 | -0.0901 | 0.0376 | -0.103
CTATAGC | -0.0165 | 0.0476 | -0.453 | -0.641 | 0.0778 | -1.07 | 0.192 | -0.053 | -0.0699
CCCCCGG | -0.0808 | -0.0316 | 0.376 | 1.21 | -0.00228 | 1.46 | 0.0759 | -0.134 | 0.0299
ACAAACA | 0.00162 | 0.0882 | -0.168 | -2.01 | 0.0261 | -0.769 | 0.0773 | -0.00643 | 0.0693
TCCTGTC | 0.112 | -0.000111 | 0.139 | -0.223 | 0.0398 | -0.744 | 0.184 | 0.0169 | -0.00822
ACCATTT | 0.127 | 0.0363 | -0.478 | -1.97 | 0.0958 | -1.08 | 0.0677 | 0.186 | 0.126
ATGCGTT | 0.103 | 0.0192 | -0.688 | -0.96 | 0.0193 | -1.1 | -0.0409 | -0.0326 | -0.141
ACGACCC | -0.15 | 0.0391 | 0.157 | 0.602 | 0.115 | 0.55 | 0.0801 | 0.0445 | 0.0792
GTGTGGT | -0.08 | -0.0805 | 0.328 | 0.762 | 0.00634 | 1.3 | -1.39 | 0.0268 | 0.0543
AAGCATC | -0.0246 | 0.108 | -0.0035 | -0.272 | -0.0293 | -0.424 | -0.0183 | -0.0304 | 0.0867
TGTTCGC | 0.0195 | -0.0405 | -0.253 | -0.451 | -0.0719 | -0.815 | 0.031 | 0.0132 | -0.0345
TACGAAC | -0.0279 | -0.0456 | -0.26 | -0.311 | -0.0144 | -0.827 | -0.183 | -0.197 | -0.235
TGCTTAC | 0.0678 | -0.0146 | 0.161 | -1.08 | -0.0463 | 0.251 | -0.0329 | -0.0872 | -0.0693
CCCGTCG | 0.0668 | 0.00284 | -0.647 | -0.191 | -0.0233 | -0.959 | 0.169 | -0.0319 | -0.0122
CCTCGAG | -0.00695 | 0.0785 | -0.149 | 0.0603 | 0.0675 | -0.671 | 0.0962 | -0.0519 | 0.078
GCGGGGC | 0.0061 | 0.0314 | 0.847 | 1.24 | 0.193 | 1.93 | 0.337 | 0.166 | 0.141
TCGGACA | -0.0258 | -0.0475 | 0.681 | 1.44 | -0.0973 | 1.87 | 0.156 | 0.0239 | 0.153
GGCGCTA | 0.00197 | -0.00539 | 0.276 | 0.879 | -0.0449 | 1.53 | 0.105 | -0.0744 | 0.176
GCTTGGA | -0.0855 | -0.0959 | 0.0883 | 0.39 | -0.125 | 0.0652 | -0.00292 | 0.0554 | -0.102
GTACACG | -0.0286 | -0.0979 | -0.684 | -0.694 | -0.0449 | -0.843 | 0.109 | 0.00859 | -0.166
CCAGCAG | 0.02 | 0.0261 | -0.461 | -0.42 | 0.108 | -0.912 | 0.292 | 0.0319 | -0.11
TTTCTAT | 0.00106 | -0.0866 | 0.206 | -0.442 | -0.019 | -0.176 | -0.162 | -0.0145 | -0.00169
TTACGCC | -0.00671 | -0.0996 | -0.165 | -1.3 | -0.0242 | -0.826 | -0.138 | -0.0445 | -0.0929
GCTTATG | -0.0438 | -0.06 | -0.273 | -0.0355 | -0.0312 | -0.692 | 0.0267 | -0.0502 | -0.0845
TACACGC | -0.00645 | -0.155 | -0.389 | -0.763 | -0.112 | -0.879 | -0.0164 | -0.0445 | -0.104
CTCGACG | 0.0637 | 0.0513 | -0.524 | -0.555 | 0.136 | -0.922 | 0.154 | 0.0748 | -0.0417
GAATAAT | -2.73 | -0.637 | -2.93 | -2.79 | -0.0968 | -2.08 | -2.95 | -0.186 | -2.87
TTTTCTT | -2.72 | -0.486 | -0.084 | -2.36 | 0.0784 | -0.261 | -3.01 | 0.0559 | -0.272
ATTTGGA | 0.0049 | -0.0826 | -0.138 | -0.32 | -0.0405 | -0.882 | -0.121 | -0.0156 | -0.0837
TATGCGG | 0.0945 | 0.0539 | 0.369 | 0.707 | -0.106 | 0.551 | 0.114 | 0.0195 | 0.0503
